For 1 compound, T/C results are on record in PubChem BioAssay AID202 (DTP/NCI, 2004).

The source holds more than one record for some entries. This is not the full list of results. There may be further records. The records of an entry repeat one measurement (runs, samples, wells, individuals or studies).

For this assay, the system named is HT29 xenograft, nude mice, s.c., tumor weight T/C%. The assay can be described thus: NCI In Vivo Anticancer Drug Screen. Data for tumor model HT29;CX-1 Human Adenocarcinoma (MER+) (subcutaneous) in NU/NU Swiss (nude) mice. The following applies: endpoint: optimum tumor weight change, schedule: Q04DX005 (ip), vehicle: Klucel (hydroxypropylcellulose) (HPC), higher = larger tumour. Here is the method: The antitumor activity of compounds was measured in mice bearing transplantable tumors. Survival or tumor size were measured and the results are expressed as the measurement made in the treated group (T) divided by the measurement made in the vehicle treated control group (C). The tumor model used in this assay is HT29;CX-1 Human Adenocarcinoma (MER+) (subcutaneous) in NU/NU Swiss (nude) mice

As for `CN(C)c1nc(N(C)C)nc(N(C)C)n1`, the T/C (dose: 60.0 mg/kg/injection) was 53 % of control and 114 % of control; the T/C (dose: 120.0 mg/kg/injection) was 51 % of control and 102 % of control.
